{
  "source": "the supplement of paper PMC7726561",
  "sequences": {"B1": {"name": "unnamed (peptide)", "chain": "KPAGPPGILAL"}, "B2": {"name": "unnamed (peptide)", "chain": "APIGLKAVV"}, "B3": {"name": "unnamed (peptide)", "chain": "KPRSPVVEL"}, "B4": {"name": "unnamed (peptide)", "chain": "RPAGVGVVV"}, "B5": {"name": "unnamed (peptide)", "chain": "FPRPGGLL"}, "B6": {"name": "unnamed (peptide)", "chain": "VPRPPSLLA"}, "B7": {"name": "unnamed (peptide)", "chain": "APRPLQAGPA"}, "B8": {"name": "unnamed (peptide)", "chain": "RPQQIPVL"}, "B9": {"name": "unnamed (peptide)", "chain": "SPFHRNLFL"}, "B10": {"name": "unnamed (peptide)", "chain": "RVRDINEAF"}, "B11": {"name": "unnamed (peptide)", "chain": "SPRDSPAVSL"}, "B12": {"name": "unnamed (peptide)", "chain": "KPPVGTWLGL"}, "B13": {"name": "unnamed (peptide)", "chain": "SPDTAIRSGL"}, "B14": {"name": "unnamed (peptide)", "chain": "SPLPSPSAM"}, "B15": {"name": "unnamed (peptide)", "chain": "RPADSMLNVL"}, "B16": {"name": "unnamed (peptide)", "chain": "GPRTAALGLL"}, "B17": {"name": "unnamed (peptide)", "chain": "VPNQKELTEL"}, "B18": {"name": "unnamed (peptide)", "chain": "LPRAVGTQTL"}, "B19": {"name": "unnamed (peptide)", "chain": "APIGSRGPQL"}, "B20": {"name": "unnamed (peptide)", "chain": "RPSVPAALPL"}, "B21": {"name": "unnamed (peptide)", "chain": "QPNLKLLAM"}, "B22": {"name": "unnamed (peptide)", "chain": "APELLRALL"}, "B23": {"name": "unnamed (peptide)", "chain": "APAAFGLVSF"}, "B24": {"name": "unnamed (peptide)", "chain": "RPADKRSFIP"}, "B25": {"name": "unnamed (peptide)", "chain": "APFPRGEL"}, "B26": {"name": "unnamed (peptide)", "chain": "VPQLTRPGSFL"}, "B27": {"name": "unnamed (peptide)", "chain": "VPRASVPDGFL"}, "B28": {"name": "unnamed (peptide)", "chain": "APRPPSLAVP"}, "B29": {"name": "unnamed (peptide)", "chain": "RPGLGMTSVF"}, "B30": {"name": "unnamed (peptide)", "chain": "VPRSLEPPVL"}, "B31": {"name": "unnamed (peptide)", "chain": "MPALRSINL"}, "B32": {"name": "unnamed (peptide)", "chain": "RPRPPITLL"}, "B33": {"name": "unnamed (peptide)", "chain": "SPPTPIRSVL"}, "B34": {"name": "unnamed (peptide)", "chain": "LPRAVNTQAL"}, "B35": {"name": "unnamed (peptide)", "chain": "VPDDDRSLINL"}, "B36": {"name": "unnamed (peptide)", "chain": "LPRLPVPAV"}},
  "note": "Whole data set: some 1,400 sequences, median “thermal melting temperature (Tm) of peptide-HLA complex” near 60, cut for the lowest 2% near 45. Some of the results follow.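 Further: cell lysates heated 10 min at 37–73 °C, remaining pHLA pulled down with pan-class I antibody, peptides quantified by DIA-MS versus 37 °C, Tm where half the complex is lost.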",
  "data": [
    {"biological_target": "HLA-B*07:02", "test": "thermal melting temperature (Tm) of peptide-HLA complex; higher = more thermostable pHLA complex", "details": "C1R-B*07:02", "units": {"thermal melting temperature": "°C"}, "values": [
      {"sequence": "B1", "thermal melting temperature": 62.3},
      {"sequence": "B2", "thermal melting temperature": 62.1},
      {"sequence": "B3", "thermal melting temperature": 61.3},
      {"sequence": "B4", "thermal melting temperature": 56.4},
      {"sequence": "B5", "thermal melting temperature": 62.2},
      {"sequence": "B6", "thermal melting temperature": 60.1},
      {"sequence": "B7", "thermal melting temperature": 47.3},
      {"sequence": "B8", "thermal melting temperature": 59.5},
      {"sequence": "B9", "thermal melting temperature": 60.1},
      {"sequence": "B10", "thermal melting temperature": 59.1},
      {"sequence": "B11", "thermal melting temperature": 58.9},
      {"sequence": "B12", "thermal melting temperature": 55.7},
      {"sequence": "B13", "thermal melting temperature": 56.7},
      {"sequence": "B14", "thermal melting temperature": 63.8},
      {"sequence": "B15", "thermal melting temperature": 62},
      {"sequence": "B16", "thermal melting temperature": 60.6},
      {"sequence": "B17", "thermal melting temperature": 58},
      {"sequence": "B18", "thermal melting temperature": 58.4},
      {"sequence": "B19", "thermal melting temperature": 58.6},
      {"sequence": "B20", "thermal melting temperature": 61.7},
      {"sequence": "B21", "thermal melting temperature": 62.9},
      {"sequence": "B22", "thermal melting temperature": 62.9},
      {"sequence": "B23", "thermal melting temperature": 63.7},
      {"sequence": "B24", "thermal melting temperature": 61.8},
      {"sequence": "B25", "thermal melting temperature": 61.5},
      {"sequence": "B26", "thermal melting temperature": 60.9},
      {"sequence": "B27", "thermal melting temperature": 62.3},
      {"sequence": "B28", "thermal melting temperature": 59.1},
      {"sequence": "B29", "thermal melting temperature": 61.4},
      {"sequence": "B30", "thermal melting temperature": 57},
      {"sequence": "B31", "thermal melting temperature": 61.2},
      {"sequence": "B32", "thermal melting temperature": 61.9},
      {"sequence": "B33", "thermal melting temperature": 60.6},
      {"sequence": "B34", "thermal melting temperature": 60.4},
      {"sequence": "B35", "thermal melting temperature": 56.8},
      {"sequence": "B36", "thermal melting temperature": 62.7}
    ]}
  ]
}
